Data reported in the supplement of paper PMC3334620.
Whole data set: some 33,000 sequences, median “E-score (-0.5 to 0.5)” near -0.035, cut for the highest 2% near 0.34. Some of the results follow.

The sequences below were run against T1, Mot3 (UniProt P54785) (assay: PBM E-score (8-mer binding enrichment) (E-score (-0.5 to 0.5)); higher = stronger / more preferred TF binding; most listed sequences are background and not binding sites). Conditions: protein concentration: 200 nM; construct: GST-full length.
T1 sequence: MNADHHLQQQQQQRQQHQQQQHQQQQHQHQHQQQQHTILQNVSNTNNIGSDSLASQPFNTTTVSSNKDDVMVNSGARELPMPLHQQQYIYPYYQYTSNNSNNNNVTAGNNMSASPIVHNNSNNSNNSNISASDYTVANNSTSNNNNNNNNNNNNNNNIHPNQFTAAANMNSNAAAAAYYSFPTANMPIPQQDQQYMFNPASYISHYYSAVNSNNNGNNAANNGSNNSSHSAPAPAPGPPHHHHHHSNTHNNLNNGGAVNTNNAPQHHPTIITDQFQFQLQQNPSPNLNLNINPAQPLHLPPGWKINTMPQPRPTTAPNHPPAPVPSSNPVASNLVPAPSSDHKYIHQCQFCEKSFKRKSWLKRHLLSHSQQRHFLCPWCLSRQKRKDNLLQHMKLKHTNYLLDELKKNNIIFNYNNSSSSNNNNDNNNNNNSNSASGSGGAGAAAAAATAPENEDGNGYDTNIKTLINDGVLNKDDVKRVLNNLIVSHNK
Procedure, shortened: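 The E-score, a modified Wilcoxon-Mann-Whitney statistic, was computed by the Universal PBM Analysis Suite for every ungapped eight-base word pooled with its reverse complement. Scans behind it were normalised with masliner after bound GST-tagged yeast transcription factors were detected with fluorescent anti-GST. The proteins, at about 100-200 nM, had been applied to universal all-10-mer Agilent arrays made double-stranded by primer extension.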

Row | Sequence | PBM E-score
1 | GCGTGTAA | 0.431
2 | AACAACTC | 0.00691
3 | CGCCCTAC | 0.0146
4 | CGTAGACG | 0.0471
5 | CGACGTAC | 0.131
6 | CTAGTAAG | 0.00559
7 | CTTGAGTA | -0.0441
8 | ACAGAAGG | 0.0393
9 | ATCTAATC | -0.0218
10 | AGATCATC | 0.12
11 | CAGGCAGC | 0.312
12 | ACGCTACT | -0.0607
13 | ATTTATAA | 0.146
14 | AGAGCTAA | -0.111
15 | ACGAAGAG | 0.0579
16 | ACCCAACA | -0.00542
17 | CTTGATTC | 0.023
18 | CCGGATGC | -0.24
19 | AAGGAGAA | 0.00568
20 | ATAGTTGA | 0.0134
21 | ATACTCTG | 0.0564
22 | ATGCAAGC | -0.131
23 | AAGTAGTG | 0.12
24 | ATTGTTGA | 0.189
25 | ATAACACA | 0.332

Row | Sequence | PBM E-score
26 | TATCTAGA | -0.027
27 | CTGGCAAC | -0.191
28 | AGTCAGAA | -0.253
29 | AGTTAGAC | 0.0476
30 | ATAGATCA | 0.104
31 | GGTAGCAA | -0.183
32 | CGGCACAC | -0.21
33 | ACAGCCTG | 0.029
34 | CATGATGG | -0.00757
35 | CATATTGC | -0.105
36 | CATCGGCC | -0.202
37 | AGGTAGCC | 0.0625
38 | GAAGCAGC | -0.203
39 | GGATGAAC | -0.105
40 | CCGATCAA | -0.093
41 | ACCAAGCG | -0.0737
42 | GTCGGCCA | -0.201
43 | CCCTAAAA | -0.18
44 | GTTTATTA | 0.247
45 | ACATCCAA | 0.0963
46 | GTCCTCCA | -0.175
47 | ACGGCACA | 0.00217
48 | AACGGACT | -0.119
49 | CCTAGGAG | 0.032
50 | ATCGGAAG | 0.00634

Row | Sequence | PBM E-score
51 | TAATAGTA | 0.231
52 | GGGCGGAA | -0.242
53 | CACATTTC | 0.139
54 | GGTGCCTA | 0.492
55 | CAATACAA | 0.243
56 | CAGAGCTA | -0.319
57 | AAAAGATT | -0.112
58 | CGCACAAG | -0.0503
59 | CTCAGTGC | 0.0835
60 | CGGGTACG | -0.276
61 | CTTAGCCA | -0.16
62 | CATAACTA | 0.0106
63 | GAGGAGAA | -0.228
64 | CAGGGAGC | -0.309
65 | CCAATTAG | -0.159
66 | ATGGGACC | -0.23
67 | CCCCCCAC | -0.38
68 | TACATGTA | 0.408
69 | CCAGACTA | -0.17
70 | CTCGGGAA | -0.155
71 | CTAGCGCA | -0.0897
72 | AGTAACAC | 0.174
73 | CGGGTGAA | -0.046
74 | GGCCGGAC | -0.187
75 | GCCAGCTA | -0.0679

Row | Sequence | PBM E-score
76 | GAGAGAAA | -0.15
77 | CCCGCGCG | -0.226
78 | TAACCGTA | 0.0494
79 | GGACCCAA | -0.229
80 | GCTATTCA | 0.0045
81 | AGTCCGGG | -0.146
82 | CTGCCTAC | 0.264
83 | CGTCGCCA | -0.205
84 | ATCCAGGG | -0.281
85 | ATAAATTG | 0.139
86 | GCTTTAAC | 0.135
87 | ATTGATTG | -0.027
88 | AAAACGTA | 0.21
89 | CGTTCACC | -0.129
90 | CTAGGATA | 0.0667
91 | ACGCTATG | -0.00824
92 | CCATTCCC | -0.207
93 | CGTGAACG | -0.296
94 | GACTTTGC | -0.157
95 | GACGGATC | -0.168
96 | AATACGTG | 0.259
97 | AGTATCTC | 0.0112
98 | AAAACATA | 0.314
99 | ACTCGCCC | -0.179
100 | GGCTCAAA | -0.194

Row | Sequence | PBM E-score
101 | CCAACCTC | -0.0519
102 | AGACCAAC | -0.0934
103 | CAAGGATG | 0.121
104 | CTTGGCGA | -0.105
105 | AAGAGCTA | 0.162
106 | GCGATCAC | -0.121
107 | AAAAATAT | 0.0422
108 | AAGAAACC | -0.00868
109 | ACCATCGA | -0.00045
110 | GTCAGCAA | 0.0755
111 | AGCCATTA | 0.0474
112 | TGACATCA | 0.12
113 | ACACGTTC | 0.303
114 | AATGCCGG | -0.122
115 | TAATTAGA | 0.0891
116 | CCTGGAGC | -0.105
117 | ACTATTAC | 0.25
118 | TATAACCA | -0.0522
119 | CTAAAGTC | -0.0489
120 | CTACATAA | 0.228
121 | GTTGCAAC | 0.149
122 | CATAGGCC | 0.135
123 | ACGGCCGG | -0.242
124 | AATCTTGC | 0.0579
125 | TAAGCGAA | 0.248

Row | Sequence | PBM E-score
126 | ACATTTGA | 0.174
127 | ACTGGAGA | -0.245
128 | ATCACAAG | 0.041
129 | TCGATCCA | -0.00449
130 | ATGCGCGA | -0.2
131 | AAAGACCC | -0.119
132 | ATCAGCAA | -0.218
133 | ATGCTTGA | -0.0785
134 | CTATGAAC | 0.2
135 | GAAGGCTA | 0.0397
136 | CGGATCCA | -0.223
137 | AGTAGTCA | 0.141
138 | AACACCAC | 0.0497
139 | GCTGAAAA | 0.0515
140 | CACGACAA | 0.125
141 | CTCCCCTC | -0.126
142 | AAGTACAA | 0.202
143 | ATCCGATA | 0.00354
144 | GGGTATCA | -0.174
145 | AGAGGACT | -0.206
146 | AGGTTTAC | 0.14
147 | CTCCCGGA | -0.334
148 | AAGATGCG | -0.0702
149 | GACGTGTA | 0.318
150 | AACACGAA | 0.33

Row | Sequence | PBM E-score
151 | CTGAGAAA | 0.0648
152 | CTCTTTTC | -0.0275
153 | AGGATTAG | 0.0689
154 | CCGGGACA | -0.112
155 | GCTGTACC | -0.0581
156 | AAGGTGCG | -0.0516
157 | GGTCGTAA | 0.0727
158 | CGCACGCC | -0.103
159 | ACTCTCTG | -0.169
160 | ATTTGTTC | 0.204
161 | AGCTTACC | -0.148
162 | GAGGTGAC | -0.0345
163 | CCATCATA | -0.128
164 | ACGTCACG | 0.157
165 | CGGAATGC | -0.151
166 | AATGGCCC | -0.232
167 | AATAACCT | 0.0798
168 | ACATTCAA | -0.103
169 | AGGCATAC | 0.288
170 | GAGTGTCC | -0.136
171 | AACGAGGG | 0.0775
172 | CTTATCTC | -0.208
